Data from the RNAGym collection of RNA variant scans (doi:10.7554/elife.90254).
Read counts are not given, so values of variants with three or more changes are uncertain.

B1: LINE1-mini (parent)
chain: GGCAGAGCUCAACACAGCGUGGCAAAGUGGCUGUGGCUAGACUGCC

Variants of: B1
Experiment: self-cleavage, relative activity (ratio to wild type); higher = more cleavage; in vitro, sequencing; the parent is a self-cleaving ribozyme

| Variant | self-cleavage |
| --- | --- |
| GGCAGAACUCAACACAGCGUGGCUAAGUGUCUGUGGCUAGACUGCC | 2.94 |
| GGCAGAACUCAACCCAGCGCGGCAACGUGGCUGUGGCUAGACUGCC | 0.02 |
| GGCAGAACUCAACACUGCGUGGCAAAGUGGCUGUGGCUGGACUGCC | 0.1 |
| GGCAGAACUCAACACAGCGUGGCACAGUGGCUUUGGCUAGUCUGCC | 0.11 |
| GGCAGAACUCAACACAGCGUGGCAUAGUGGCUGGGGCUAGACUGCC | 0.06 |
| GGCAGAAGUGCACACAGCGUGGCAAAUUGGCUGUGGCUAGACUGCC | 0.02 |
| GGCAGAACUUAACACAGCGUGGCAAACUAGCUGUGGGUAGACUGCC | 0.04 |
| GGCAGAACUCAACACGGCGUGGCAAAGUGGCGUUGGCUAGAGUGCC | 0 |
| GGCAGAAUUCAACACAGCGUGGCAAACUGGCUGUGGCUAGACUGUC | 0.15 |
| GGCAGAACUAAACACAGCGUGGCAAAUUGGCUGUGGCUAGACUGCG | 0.01 |
| GGCAGAACUGAACACAGCGUGGCAUAGCGGCUGUGGCUAGACUGCC | 0.02 |
| GGCAGAAGGCAACAUAGCGUGGCAAACUCGCUGUGGCUAGACUGCC | 0.01 |
| GGCAGAACUCAACACAGCGUGGCUAAGUGGCUCUGGCUAGACUGCC | 0.09 |
| GGCAGAAAUCAACACAGCGUGGCAAAGUGGAUGUGGCUAGACUGCC | 0.27 |
| GGCAGAAGUCAACACAGCGUCGCAAAGUGGCUGUGGCUAGACUGCC | 0.16 |
| GGCAGAAUUCAACACAGCGGGGCAAAGUGGCUGUGGCUAGACUGCC | 0.15 |
| GGCAGAAUUCAACACAACGUGUCAAAGUGGCUGUGGCUAGACUGCC | 0.29 |
| GGCAGAACUUAACACAGCGUGGCAAAGUGGAUGUGGCUAGACUGCC | 0.01 |
| GGCAGAACUCAACACCGCGUGGCAAAGUGGCUGUGGCUACACUCCC | 0.03 |

| Variant | self-cleavage |
| --- | --- |
| GGCAGAACUUAACACAGCGUGCCAAAGUGGCUGUCGCUAGACUGCC | 0.03 |
| GGCAGAACUCAACACAGCGUGGCAAUGUGGAUGUGGCUAGAUUGCC | 0.02 |
| GGCAGAACUGAACAUAGCGUGGCCAAGUGGCUGUGGCUAGACUGCC | 0.03 |
| GGCAGAACUCAACACAGCGUGGCACAGUGGCUUUGGCUAGACUGCC | 0.38 |
| GGCAGAAUUCAACACAGCCUGGCAAUGUGGCUGUGGCUAGACUGCC | 0.02 |
| GGCAGAACUCAACACAGCGUGGCUCAGUGGCUGUGGCUAGAUUGCC | 0.07 |
| GGCAGAACUGAACACAUCGUGACAAAAUCGUUGUGGCUAGACUGCC | 0.01 |
| GGCAGAACUCAACACAGCGUGGCAAUGUGGCUGUUGCUAGACUGCC | 0.12 |
| GGCAGAAAUCAACACACCGUGGCAAAGUGGCCGUGGCUAGACUGCC | 0.01 |
| GGCAGAACUCAACACGGCGUGGCAAAGUGGCUGUAGCUAGACUGCC | 0.06 |
| GGCAGAAUUCAACACAGUGUGGUAAAGUGGCUGUGGCUAGACUGCC | 0.34 |
| GGCAGAACUAAACACAGCGUGGCAAAGUGGCUCUGGCUAGACUGCC | 0.04 |
| GGCAGAACUAAACACAGCGUGGCAAAGUAGCUGUGUCUAGACUGCC | 0.13 |
| GGCAGAACUCAACUCAGCGUGGAAAAGUGGCUGUGGCUAGACUGCC | 0.16 |
| GGCAGAACUCAACACGGCGUGGCAAAGUGGCUGUGGCUAGAAUGGC | 0.22 |
| GGCAGAACUCAACACAGCGUGGCAUAGUGGCUGUGGCUUGACCUCC | 0.06 |
| GGCAGAACUUAAGACAGCGUGGCAAAGUGGCUGUGGCUAGACUGCC | 0.04 |
| GGCAGAACUCAACACAGCGUGGCACAGUGGCUGUGGAUAAACUGCC | 0.29 |
| GGCAGAACUACACACAGUGUGGUAAAGUGGCUGUGGCUAGACUUAC | 0.01 |

| Variant | self-cleavage |
| --- | --- |
| GGCAGAAGUCAACACAGCGUGGUAAAGUGGCUGUGGCUAGACUGCC | 0.14 |
| GGCAGAACUCAACACUGCGUGGCAAAGUGGCGGUCGCUACACUGCC | 0.11 |
| GGCAGAACUAGACACAGCGUGGCAAAGUUGCUGUGGCUAGACUGCC | 0.01 |
| GGCAGAACUAAACACAGCGUGUCAAAGUGUCUGUGGCUAGACUGCC | 0.01 |
| GGCAGAACUAAACUCAGCGUGGCAAAGUGGCUGUGGGUAGACUGCC | 0 |
| GGCAGAAAACAACACAGCGUGGCAAAGUGGCUGUGGCUAGACUGCC | 0.27 |
| GGCAGAACUCAACACAGCGUGGCAAUGUGUCGGUGGCUAUACUGCC | 0.18 |
| GGCAGAACUGAAAACAGCGUGGCAAAGUGGCUGUGGCUAGUCUCCC | 0.04 |
| GGCAGAACUCAAAACAUCGUGGCUGAGUGGCUGUGGCUAGACUGCC | 0.04 |
| GGCAGAACUCAACACAGCGUGGCAUAGUGCCUGUAGCUAGACUGCC | 0.08 |
| GGCAGAACUAAACACAGCGUGGCAAAGUGGCUGUGGCUAGACUGCU | 0.03 |
| GGCAGAAAUCAACACAGCGUGGCGACGUGGCUGUGGCUAGACUGCC | 0.15 |
| GGCAGAAAUCAACACAGUGUGGCAAAGUGGCUGUGGCUAGACUGCC | 1.85 |
| GGCAGAACUCAACACAGCGUGGCAAAGUGGCUGUGGCUUUACUUCC | 0.47 |
| GGCAGAACUGAACACGGCGUGGCAGAGUGGCUGUGGAUAGACUGCC | 0.01 |
| GGCAGAACUCAACCCAGCGUGGCAAAGUGGCUGUGGCUACACUGCC | 0.27 |
| GGCAGAAAUCAACACAGCACGGCAAAGUGGCUGUGGCUCGACUGCC | 0.03 |
| GGCAGAACUCAACACGGCAUGGCAAGGUGGCUGUGGCUAGACUGUC | 0.08 |
